# According to the BET-seq Pho4 binding data (Le et al. 2018):
# This is one part of the list. Values were computed here from the reads of four pooled replicates and scatter widely.
# Target: T1, Pho4 (S. cerevisiae) (UniProt P07270)
# T1 sequence: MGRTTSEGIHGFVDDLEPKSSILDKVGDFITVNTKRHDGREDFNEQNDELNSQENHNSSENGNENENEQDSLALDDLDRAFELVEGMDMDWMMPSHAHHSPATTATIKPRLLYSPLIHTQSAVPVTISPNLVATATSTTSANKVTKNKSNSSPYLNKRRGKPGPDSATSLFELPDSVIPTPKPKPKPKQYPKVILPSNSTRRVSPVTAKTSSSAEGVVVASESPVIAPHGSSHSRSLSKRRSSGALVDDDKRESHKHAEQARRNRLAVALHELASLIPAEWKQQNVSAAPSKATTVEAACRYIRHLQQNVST
# Experiment: relative binding free energy (BET-seq); higher = weaker binding
# Conditions: reference: library average
row,Sequence,relative binding free energy [kcal/mol]
1,GTTTGCACGTGGATGA,0.03
2,AGCGTCACGTGTTAGT,-0.1
3,CTTTTCACGTGGATTA,0.3
4,TTGCACACGTGAAGGT,0.17
5,AGGATCACGTGGGGGG,0
6,GCGGGCACGTGTGCGG,-0.16
7,GTGTACACGTGTTAGT,0.13
8,TAGGGCACGTGCGTTG,-0.19
9,CGGATCACGTGAGTGG,0.44
10,AGATTCACGTGTTGGT,0.33
11,TTGAGCACGTGCGGGG,-0.07
12,GTAGTCACGTGTTTTT,0.18
13,ATATGCACGTGATAGT,0.04
14,GTTACCACGTGTGTTT,0.05
15,TGCTTCACGTGTAGGT,0.18
16,GTGAACACGTGTTGAT,-0.02
17,GGGACCACGTGTATTT,0.14
18,GTGGTCACGTGGTTTC,0.21
19,CAGGGCACGTGGTTTT,-0.29
20,TGAATCACGTGCGTTG,0.04
21,CTTATCACGTGTTGAT,0.18

row,Sequence,relative binding free energy [kcal/mol]
1,AGGTTCACGTGCTCGT,0.22
2,GTACTCACGTGAGTTG,0.3
3,CGGAGCACGTGTTTGG,-0.02
4,TAGGACACGTGATAGT,0.09
5,GTTGTCACGTGTTCTA,0.12
6,TGATTCACGTGGGGGT,0.22
7,TGAAGCACGTGGCGGT,-0.17
8,ATTGTCACGTGAAAGC,0.24
9,CGTGTCACGTGAGTGA,0.25
10,GGTTGCACGTGAAGTT,0.23
11,TGGAGCACGTGGGGGG,-0.19
12,GTTAACACGTGACGTT,0.24
13,TTTGCCACGTGTGTAT,-0.12
14,GGTATCACGTGGTATG,0.09
15,GTTAACACGTGTCGTT,0.01
16,ATGTGCACGTGCTTAT,-0.12
17,TGTGTCACGTGTACTG,0.14
18,GGAATCACGTGTCGGG,0.2
19,TCAGTCACGTGTTTGG,-0.07
20,AGTATCACGTGAGTGA,0.34
21,GGAGTCACGTGGGGGG,0.04

row,Sequence,relative binding free energy [kcal/mol]
1,ATGGTCACGTGTTGAC,0.13
2,TCTTGCACGTGGTTGT,0.07
3,TCAGTCACGTGAGGGT,0.22
4,GTGGGCACGTGGCTTG,-0.08
5,ATTGTCACGTGAGTCT,0.24
6,TCTATCACGTGTGGAT,0.26
7,TATTACACGTGGCGGG,0.01
8,GTTAGCACGTGGAGCA,0
9,AGGAGCACGTGATGAA,0.15
10,TATTGCACGTGCATGG,-0.07
11,AGCACCACGTGGGGGG,-0.23
12,TGTCGCACGTGGGATA,-0.21
13,GGGGGCACGTGGTAAA,-0.01
14,TGAGACACGTGGAGCG,0.11
15,TGAGCCACGTGTGTAG,-0.04
16,AAGGTCACGTGATCGG,0.32
17,TTCGTCACGTGATGGA,0.16
18,AATGTCACGTGAGTGA,0.18
19,ATGTTCACGTGATGTC,0.17
20,TGAACCACGTGTGTTG,0.03
21,ATGTACACGTGGTCAG,-0.12
